# Measurements published in the supplement of paper PMC12217912.
# The list shows a part of the results. The full chains were built here from the parent and the listed change. Inactive controls read about 0.05.
# B1: TEV protease; numbered along this chain (parent)
# chain: MGESLFKGPRDYNPISSSICHLTNESDGHTTSLYGIGFGPFIITNKHLFRRNNGTLVVQSLHGVFKVKDTTTLQQHLVDGRDMIIIRMPKDFPPFPQKLKFREPQREERICLVTTNFQTKSMSSMVSDTSCTFPSGDGIFWKHWIQTKDGQCGSPLVSTRDGFIVGIHSASNFTNTNNYFTSVPKNFMELLTNQEAQQWVSGWRLNADSVLWGGHKVFMVKPEEPFQPVKEATQL
# Variants of: B1
# Assay: raw area under fraction-flipped curve 0-4 h after induction (AUC4h, not background-subtracted), DNA-recorder readout of cleavage of the substrate (dimensionless); higher = more cleavage of the substrate by the protease variant
# Conditions: temperature: 34 °C; time window: 0-4 h after rhamnose induction
# Description: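 In vivo DNA recorder in E. coli TOP10(DE3) ΔrhaA at 34 °C. Each TEVp single-site mutant (parent TEVp 0) is paired with a single-site variant of the 7-mer TEVs (canonical ENLYFQ|S). The substrate sits between flexible linkers in a Bxb1-sfGFP-TEVs-SsrA fusion, so cleavage stabilises Bxb1 and speeds flipping of a recombination array, read by NGS. The value is the raw area under the fraction-flipped curve over 0-4 h after rhamnose induction (AUC4h), with ≥20 reads per time point. It is not background-subtracted; inactive controls average about 0.047.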
# 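Note: Bxb1 expression induced with 0.2% (w/v) L-rhamnose at OD600 near 0.5, cultures sampled hourly, flipped fraction per protease–substrate barcode pair counted by paired-end Illumina sequencing.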
Variant,area with substrate ECLYFQS,area with substrate EELYFQS,area with substrate EFLYFQS,area with substrate EGLYFQS,area with substrate EHLYFQS,area with substrate EILYFQS,area with substrate EKLYFQS,area with substrate EPLYFQS,area with substrate EQLYFQS,area with substrate ERLYFQS
E3L,0.0443,0.0734,0.0941,0.0551,0.0502,0.0728,0.048,0.065,0.072,0.0739
L205I,–,–,–,0.0951,–,–,0.0929,0.109,–,0.0728
L205K,0.0621,–,–,–,–,0.0587,0.0687,0.0562,0.0756,–
L211A,–,0.123,–,–,–,–,–,0.165,0.113,0.149
L211W,0.0963,0.0586,–,–,–,0.152,–,0.0723,0.152,0.124
L211R,–,–,–,–,–,–,0.0969,–,0.113,–
F6D,0.0794,0.118,–,0.0895,0.0975,0.0893,0.0933,0.0866,0.126,–
F6W,0.108,0.113,–,–,0.0581,0.0919,0.0864,0.0967,–,0.122
F6S,0.103,–,–,–,–,0.101,0.103,–,0.102,–
F6I,0.111,0.134,–,–,–,–,0.118,–,–,–
N175H,0.0926,–,–,–,–,0.083,–,0.107,0.124,–
N175I,0.0523,–,0.0769,–,–,0.0599,–,0.0734,–,0.0616
Q194Y,–,–,0.114,–,0.117,0.112,–,–,–,–
K221G,–,0.103,0.0695,–,0.0922,0.0371,0.101,0.0964,0.117,–
F218W,–,–,–,–,–,0.0894,0.0736,–,–,–
F218M,–,–,–,–,–,0.0871,–,–,0.0793,–
W203M,–,–,–,–,–,0.0702,–,–,–,–
P222K,0.0895,0.125,–,–,–,0.074,–,–,0.101,0.0915
L190A,–,0.119,0.118,–,–,–,–,0.114,0.0971,–

# Same assay, conditions: temperature: 34 °C; time window: 0-4 h after rhamnose induction
Variant,area with substrate ESLYFQS,area with substrate ETLYFQS,area with substrate EALYFQS,area with substrate EMLYFQS,area with substrate EVLYFQS,area with substrate EYLYFQS,area with substrate EWLYFQS,area with substrate ELLYFQS,area with substrate EDLYFQS
E3L,0.0674,0.0526,–,–,–,–,–,–,–
L205I,–,–,0.121,0.088,–,–,–,–,–
L205K,0.0633,–,0.0585,0.0668,0.0474,–,–,–,–
L211A,–,–,0.102,0.125,–,0.104,–,–,–
L211W,0.102,–,0.166,0.0818,0.0762,–,0.0678,–,–
L211R,0.0974,–,0.0874,0.112,–,–,–,0.0959,–
F6D,0.0946,0.0777,–,–,0.0693,–,–,–,0.118
F6W,0.119,–,–,0.112,0.0713,–,0.105,0.0789,–
F6S,0.0931,–,–,0.116,0.0927,0.124,–,–,0.116
F6I,0.1,–,–,0.129,–,–,–,0.13,–
N175H,0.0667,–,0.115,–,0.0969,–,0.07,–,–
N175I,0.0889,–,0.0519,–,0.109,–,–,0.0534,–
Q194Y,0.1,0.116,0.115,0.152,–,0.105,0.103,–,–
A170H,0.0523,0.0715,0.073,–,0.0484,–,–,0.0561,0.0608
K221G,0.0592,0.125,0.0983,0.0733,0.0858,–,–,0.0891,–
F218W,0.0938,0.0979,0.111,–,–,–,0.104,–,–
F218M,0.101,–,0.174,–,–,–,–,–,0.146
W203M,0.0805,–,0.0791,0.0703,0.0577,–,0.0677,0.0667,0.0904
P222K,0.103,–,0.0724,0.0966,–,–,–,–,–
L190A,0.133,0.159,0.12,–,0.148,–,–,–,–
